According to PubChem BioAssay AID1645882 (National Center for Advancing Translational Sciences (NCATS), 2021):
In all, about 16,000 compounds went through this assay and about 120 (0.75%) were called active. Inconclusive results (about 4%) are left out. Calls come from the whole dose curve; as a rule, active = well fitted inhibition curve with a large enough effect; inconclusive = small, poorly fitted or top-dose-only effect; inactive = no such curve, though single readings can be large or run the other way. Some of the results follow.

target: Rap guanine nucleotide exchange factor 3 (Homo sapiens) (UniProt O95398); assay: Validation qHTS for antagonist of cAMP-regulated guanine nucleotide exchange factor 3 (EPAC1); conditions: EPAC1 Rap1B-BODIPY-GDP exchange, fluorescence; series mostly up to 150 µM; activity change, negative = inhibition: at the top concentration; note: nearly all actives have a fitted effect of over 75% in size
Sequence of UniProt O95398 (O95398 whole entry, looked up): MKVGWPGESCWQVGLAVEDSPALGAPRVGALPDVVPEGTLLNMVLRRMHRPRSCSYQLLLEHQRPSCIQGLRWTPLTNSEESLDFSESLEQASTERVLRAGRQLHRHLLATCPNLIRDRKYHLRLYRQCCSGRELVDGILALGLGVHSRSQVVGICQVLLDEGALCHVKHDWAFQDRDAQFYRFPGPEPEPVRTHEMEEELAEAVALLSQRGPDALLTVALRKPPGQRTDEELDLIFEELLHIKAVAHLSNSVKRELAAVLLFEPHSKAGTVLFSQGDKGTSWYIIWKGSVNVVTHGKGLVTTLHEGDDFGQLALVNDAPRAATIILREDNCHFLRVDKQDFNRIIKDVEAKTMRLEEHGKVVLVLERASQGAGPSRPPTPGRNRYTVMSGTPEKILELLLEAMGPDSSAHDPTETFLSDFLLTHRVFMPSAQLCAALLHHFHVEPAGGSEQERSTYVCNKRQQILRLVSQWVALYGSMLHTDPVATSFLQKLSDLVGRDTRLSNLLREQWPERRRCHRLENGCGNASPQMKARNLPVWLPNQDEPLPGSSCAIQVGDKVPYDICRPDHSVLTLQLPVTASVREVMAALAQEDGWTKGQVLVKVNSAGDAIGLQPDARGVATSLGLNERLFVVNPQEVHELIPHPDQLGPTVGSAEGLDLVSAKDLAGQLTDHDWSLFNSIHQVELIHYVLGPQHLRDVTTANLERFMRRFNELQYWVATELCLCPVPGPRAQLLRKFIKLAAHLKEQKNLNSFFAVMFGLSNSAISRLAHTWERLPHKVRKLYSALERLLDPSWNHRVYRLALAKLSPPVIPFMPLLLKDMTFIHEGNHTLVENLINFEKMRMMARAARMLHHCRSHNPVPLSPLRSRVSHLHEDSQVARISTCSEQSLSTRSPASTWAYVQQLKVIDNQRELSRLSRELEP
Method in brief: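 EPAC1 (100 nM) mixed with 250 nM RAP1B-BODIPY-GDP and 50 uM GDP; compounds in concentration series, 5 min at room temperature. Fluorescence (ex 480/em 540 nm) read every 5 min for 30 min; normalized to ATA control and DMSO.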

SMILES	activity change, negative = inhibition
CS(=O)(=O)N1CCC2(CCCN(C(c3ccccc3)c3ccccc3)C2)CC1	inactive: -11.7%
COCCN1CCN(C(=O)c2cnn(-c3nccc(-c4ccccc4F)n3)c2-c2ccco2)CC1	inactive: 11.9%
COc1ccc2ccccc2c1CN1CCOc2ccc(CN3CCN(CCO)CC3)cc2C1	inactive: 1.83%
COC(=O)C1=COC(O[C@H]2OC(CO)[C@H](O)C(O)C2O)[C@H]2C1C(=O)C[C@@H]2C (stereo not given in full)	inactive: 10.7%
N=C(N)S/C=C\C(=O)O	inactive
Cc1nnc(NS(=O)(=O)c2ccc(N)cc2)s1	inactive
COc1ccccc1-c1ccnc(-n2ncc(C(=O)N(C)C(C)c3nc(C)cs3)c2C2CC2)n1 (stereo not given)	inactive: 12.8%
COc1ccc2c(c1)CCc1cnc(-n3ncc(C(=O)NC4CCOC4)c3C3CC3)nc1-2 (stereo not given)	inactive: 1.5%
COc1ccccc1-c1cncnc1N(C)Cc1ccco1	inactive: 6.95%
CCC1CN(CCNC(=O)c2cccnc2OC)Cc2cc(OC)ccc2O1 (stereo not given)	inactive: 6.61%
O=C(Nc1ccccc1)N1CCCC2(CCN(C(=O)c3cc(C(F)(F)F)cc(C(F)(F)F)c3)CC2)C1	inactive: -11%
CN(C)c1ccc(/C=C2/C(=O)Nc3ccccc32)cc1	inactive: -18.9%
COc1cc(=O)n2c(c1C(=O)NC(C)c1ccco1)CCN(C(=O)c1ccccc1SC)CC2 (stereo not given)	inactive: 13.1%
Clc1ccccc1-c1cc(NCCN2CCOCC2)ncn1	inactive: 1.54%
O=C(C[N+]12CN3CN(CN(C3)C1)C2)c1ccc(I)cc1	inactive: 10.1%
CC1CC(OC(=O)C(O)c2ccccc2)CC(C)(C)N1C (stereo not given)	inactive
OC[C@H]1O[C@@H](n2cnc3c(NCc4ccco4)ncnc32)[C@H](O)[C@@H]1O	inactive
CC(C)CCOC(=O)c1ccc(N(C)C)cc1	inactive: 4.17%
COCC(=O)Nc1cc(C(=O)N2CCc3c([nH]c4ccccc34)C2)cc2nc(-c3ccccc3)n(C)c12	inactive: 3.91%
COCC(=O)N1CCC2(CCCN(Cc3ccccc3)C2)CC1	inactive: 5.89%
N[C@@]1(C(=O)O)CN[C@H](C(=O)O)C1	inactive: -18.6%
O=S(=O)(c1ccccc1)N1CCC2(CCCN(Cc3cc(C(F)(F)F)cc(C(F)(F)F)c3)C2)CC1	inactive: -2.48%
O=C(O)C[C@H]1c2ccc(C(F)(F)F)cc2S(=O)(=O)N1C1CCCCC1	inactive: 14.4%
C=CCCCCCCCCCCC/C=C/C(O)COC(C)=O (stereo not given)	inactive: 0.685%
CCCCCCCCCCCCN1[C@@H](CC(=O)OC)c2cc(C(F)(F)F)ccc2S1(=O)=O	inactive: -0.938%

SMILES	activity change, negative = inhibition
CCCCCCCC/C=C/CCCCCCCCOP(=O)([O-])OCC[N+](C)(C)C	inactive: 4.43%
FC(F)(F)c1ccccc1-c1nccc(NCc2cccs2)n1	inactive: -7.29%
CC(=O)OCC(OC(C)=O)C(OC(C)=O)C(OC(C)=O)C(OC(C)=O)C(COC(C)=O)OC(C)=O (stereo not given)	inactive: 6.6%
C=CCN(C(C(=O)OC)C(C)C)S(=O)(=O)CCNCc1ccccc1 (stereo not given)	inactive: 10.7%
O=C(NCCc1c[nH]c2ccccc12)c1cccnc1	inactive: -6.62%
C1CCN2C[C@@H]3C[C@@H](CN4CCCC[C@@H]34)[C@H]2C1	inactive
CN(Cc1ccc2c(c1)CN(C(=O)c1cccc(N(C)C)c1)CCO2)Cc1cc(C2CC2)n[nH]1	inactive: 16.3%
COc1ccc(-c2nc3cnc(N4CCOCC4)nc3n(C)c2=O)cc1	inactive: 13.1%
COc1ccc(-c2[nH]ncc2CN2CCOc3c(cc(-c4cccc(OC)n4)cc3OC)C2)cc1	inactive: 0.414%
CCCc1nc2cccnc2n1C1CCN(C(=O)CC2NC(=O)c3ccccc32)CC1 (stereo not given)	inactive: -0.429%
COc1ccc2c(OC)c3ccoc3nc2c1OC	inactive: -16.1%
COc1cccc(-c2nccc(NCc3cccnc3)n2)c1	inactive: 15.5%
NC1=NCCN1CC(=O)O	inactive: 15%
C[C@@H]([C@H](O)c1ccc(O)cc1)N1CCC(Cc2ccccc2)CC1	inactive: 14.6%
CC1CC2C3CC(F)C4=CC(=O)C=C[C@@]4(C)[C@@]3(F)C(O)C[C@]2(C)[C@]1(O)C(=O)COC(=O)C(C)(C)C (stereo not given in full)	inactive: 5.44%
COc1cccc(Cn2c(=O)c(-c3cccc(C#N)c3)nc3cnc(OC)nc32)c1	inactive: 10.7%
CN(C)CC(C)(C)CNC(=O)c1cnn(-c2ncc3c(n2)-c2ccccc2CC3)c1-c1ccco1	inactive: 9.1%
O=C(CC1(c2cccc(F)c2)CC(=O)N(Cc2cccnc2)C1=O)N1CCCCCCC1 (stereo not given)	inactive: 9.28%
O=C1C[C@@H]2c3c(cccc3CN1Cc1ccc(Cl)cc1)C[C@@H](O)[C@H]2O	inactive: -5.14%
CCCCCCCCCCCCCCCCCCO	inactive: 8.83%
COc1ccccc1CNc1ncncc1-c1cccc(NS(C)(=O)=O)c1	inactive: -8.62%
COCC(=O)N1CCC2(CC1)CCN(C(c1ccccc1)c1ccccc1)CC2	inactive: -0.451%
CC(C)N1C[C@@H](Sc2ccccn2)C[C@H]1C(=O)Nc1ccc2c(c1)Nc1ccccc1CC2	inactive: 7.12%
CC(C)C[C@@H](CO)N1CCN(CCc2ccccc2)CCC1=O	inactive: 0.539%
CCN(CC)CCN(C)C(=O)c1ccc(-c2ccccc2)nc1N(C)C	inactive: -5.41%
